Measured values from the RNAGym collection of RNA variant scans (doi:10.1073/pnas.2313332121).
This sample is rich in variants without activity.

B1: TPR 5TU (parent)
chain: GGAUCUUCUCGAUCUAACAAAAAAGACAAAUCUGCCACAAAGCUUGAGAGCAUCUUCGGAUGCAGAGGCGGCAGCCUUCGGUGGCGCGAUAGCGCCAACGUUCUCAACUAUGACACGCAAAACGCGUGCUCCGUUGAAUGGAGUUUAUCAUG

Variants of: B1
Assay: polymerase ribozyme fitness, log enrichment relative to wild type (log ratio); higher = more active; in vitro selection for triplet polymerase activity
In short: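 Both subunits of a heterodimeric triplet polymerase ribozyme were given their own mutant library, built by PCR and transcribed. Each library was annealed with a biotinylated primer, the partner subunit and triplets, incubated frozen at −7 °C, and its extended constructs gel-excised, captured on streptavidin beads and amplified by RT-PCR, all in one round done in triplicate. Fitness is the logarithm of genotype enrichment relative to wild-type enrichment, with replicates averaged by inverse-variance weighting. That logarithm is base 2, and Illumina-sequenced genotypes needed ≥10 input reads and ≥1 read per output.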

| Variant | polymerase ribozyme fitness (log ratio) |
| --- | --- |
| GGAUCUUCUCGAUCUAACAAAAAAGACAAAUCUGCCACCAAGCUUGAGAGCAUCUUCGGAAGCAGAGGCGGCAGCCUUCGCUGGCGCGUUAGCCCCAACGUUCUCCACGAUGACACGCAAAACGUGUGCUCCGCUGAAUGGAGUUUAUCAUG [A39C U61A G81C A89U G94C A106C U109G C125U U134C] | ≤ -4.2 |
| GGAUCUUCUCGAUCUAACAAAAAAGACAAAUCUGCCACCAAGCUUGAGAGCAUCUUCGGAGGCAGAGGCGGCAGUCUUCGGUGGCGCACUAGCGCCAUCGUUCUCAACUAUGACACGCAAAACGCGUGCUCCGUUGAAUGGAGUUUAUCAUG [A39C U61G C75U G88A A89C A98U] | ≤ -4.2 |
| GGAUCUUCUCGAUCUAACAAAAAAGACAAAUCUGCCACCAAGCUUGAGAGCAUCUUCGGAUGCAGAGGCGGCAGCCUUCGGUGGCGCGAUAGCGCCAACGUUCUCAACUAUGACACGCAAAACGCGUGCUCCGUGGAAUGGACUUUAUCGUG [A39C U135G G143C A150G] | ≤ -4.2 |
| GGAUCUUCUCGAUCUAACAAAAAAGACAAAUCUGCCACGCAGCUUGAGAGCAUCUUCGGAUGCAGAGGCGGCUGACUUCGGAGGCGCGAUAGAGCCAACGUUAUCAUCUAUGACACGCAAAACGCGUGCUUCGUUGAAUGGAGUUUAUCAUG [A39G A40C A73U C75A U82A C93A C103A A107U C131U] | ≤ -4.2 |
| GGAUCUUCUCGAUCUAACAAAAAAGACAAAUCUGCCACGGAGCUUGAGCGCAUCUUCGGAUGCAGAGGCGGCAGCCUUCGGUGGCGCGAUAGCGCCAACGUUCUCAACUAUGACACGCAAAACGCGUGCUCCGUUGAAUGGAGUUCAUCAUG [A39G A40G A49C U146C] | ≤ -4.2 |
| GGAUCUUCUCGAUCUAACAAAAAAGACAAAUCUGCCACGGAGCUUGAGAGCAUCUUCGGAUGCAGAGACGGCAGCCUUCGGUGGCGCGAUAGCGCCAACAUUCUCAACUAUGAUACGGAAAACGCGUGCUCCGUUGAUUGGAGUUUAUCAUG [A39G A40G G68A G100A C114U C118G A138U] | ≤ -4.2 |
| GGAUCUUCUCGAUCUAACAAAAAAGACAAAUCUGCCACGAGGCUUGAGCGCAUCUUCGGAUGCAGAGGCGGCAGCCUUCGGUGGGGCGAUAGCGCCAACGUUCUCAGCUAUGACACGCAAAACGCGUGCUCCGUUGAAUGGAGUUUUUCAUG [A39G A41G A49C C85G A107G A147U] | ≤ -4.2 |
| GGAUCUUCUCGAUCUAACAAAAAAGACAAAUCUGCCACGAGGCUUGAGGGCAUCUUCGGAUGCAGAGGCGGCAGCCUUCGGUCGCGCGAUAGCGCCAACGUUCUCAACUAUGACACGCAAAACGCGUGCUCCGUUGAAUGGAGUAUAUCAUG [A39G A41G A49G G83C U145A] | -3.94 |
| GGAUCUUCUCGAUCUAACAAAAAAGACAAAUCUGCCACGAAGCUUGAGCGCAUCUUAGGAUGCAGAGGCGGCAGCCUUCGGUGGCGCGAUAGCGCCAACGUUCUCAACUAUGACACGCAAAACGCGUGCUCCGUUGAAUGGAGUUUAUCAUG [A39G A49C C57A] | ≤ -4.2 |
| GGAUCUUCUCGAUCUAACAAAAAAGACAAAUCUGCCACGAAGCUUGAGCGCAUCUUCGGAUGCAGAGGCGGCAGCGUUCGGUGGCGCGAUAGCGCCAAUGUUCUCAAGUGUGACACGCAAAACGCGUGCUCCGUUGAAUGGAGUUUACCAUG [A39G A49C C76G C99U C108G A110G U148C] | ≤ -4.2 |
| GGAUCUUCUCGAUCUAACAAAAAAGACAAAUCUGCCACGAAGCUUGAGCGCAUCUUCGGAUGCACCGGCGGUAGCCAUCGGUGGCGCGAUAGCGCCAACGUUCUCAACUAUGACACGCAAAACGCGUGCUCCGUUGAAUGGAGUUUAUCAUG [A39G A49C G65C A66C C72U U77A] | ≤ -4.2 |
| GGAUCUUCUCGAUCUAACAAAAAAGACAAAUCUGCCACGAAGCUUGAGAGCCUCUUCGGAUGCAGAGGCGGCAGCCUUCGGUGGCGAGAUAGCGCCAACUUUCUCAACUAUGACACGCAAAACGCGUGCUCCGUUGAAUGGAGUUUAUCAUG [A39G A52C C87A G100U] | ≤ -4.2 |
| GGAUCUUCUCGAUCUAACAAAAAAGACAAAUCUGCCACGAAGCUUGAGAGCAUCUUCGGAUGCUGAGGCGGCAGCCUACGGUGGCGCGAUAGCGCGAACGUUCUCAACUAUGACACGCAAAACGCGUGCUCCGUUGAAUGGAGUUUAUCUUG [A39G A64U U78A C96G A150U] | ≤ -4.2 |
| GGAUCUUCUCGAUCUAACAAAAAAGACAAAUCUGCCACGAAGCUUGAGAGCAUCUUCGGAUGCAGAGGCGGCGGUGUUCGGUGGCGCGAUAGAGCCAACGUUCUCAACUAUGACACGCAAAACGCGUGCUCCGUUGAAUGGAGUUUAUCAUG [A39G A73G C75U C76G C93A] | ≤ -4.2 |
| GGAUCUUCUCGAUCUAACAAAAAAGACAAAUCUGCCACGAAGCUUGAGAGCAUCUUCGGAUGCAGAGGCGGCAGCCUUCGGUGGCGCGAUGGCGCCAACGUUCUCAACUAUGACACGCAAAACGCGUGCUCCGUUGGAUGGAGUUUAUCAUG [A39G A91G A137G] | ≤ -4.2 |
| GGAUCUUCUCGAUCUAACAAAAAAGACAAAUCUGCCACGAAGCUUGAGAGCAUCUUCGGAUGCAGAGGCGGCAGCCUUCGGUGGCGCGAUUGCGCCAACGUUCUCAACUAUGACACGCACAACGCGUGCUCCGUUGAAGGUAGUUUAUCAUG [A39G A91U A120C U139G G141U] | ≤ -4.2 |
| GGAUCUUCUCGAUCUAACAAAAAAGACAAAUCUGCCACGAAGCUUGAGAGCAUCUUCGGAUGCAGAGGCGGCAGCCUUCGGUGGCGCGAUAGCGCCUACGUUCUCAACUAUGACACGCAAAACGCGUGCUCCGUUGAAUGGAGUUUAUCAUG [A39G A97U] | -2.96 |
| GGAUCUUCUCGAUCUAACAAAAAAGACAAAUCUGCCACGAAGCUUGAGAGCAUCUUCGGAUGCAGAGGCGGCAGCCUUCGGUGGCGCGAUAGCGCCAACGUUCUCAACUAUGACACGCAAAACGCGUGCUCCGUUGGAUGGAGUUUAUCAUG [A39G A137G] | -3.57 |
| GGAUCUUCUCGAUCUAACAAAAAAGACAAAUCUGCCACGAAGCUUGAGAGUUUCUUCGGAUGCAGAGGCGGCAACCUUCGGUGGCGCGAUAGCGCCAACGUUCUCAACUAUGACACGCAAAACGCGUGCUCCGUUGAAUGGAGUUUAUCAUG [A39G C51U A52U G74A] | ≤ -4.2 |
